Experimental data taken from PubChem BioAssay AID504832 (National Center for Advancing Translational Sciences (NCATS), 2011).
About 18,000 (5.8%) of roughly 310,000 compounds were called active. Inconclusive results, whose numbers are uncertain, are shown with a selection of clear calls. Calls come from the whole dose curve; as a rule, active = well fitted inhibition curve with a large enough effect; inconclusive = small, poorly fitted or top-dose-only effect, or another doubt; inactive = no such curve, though single readings can be large or run the other way. Potencies of inconclusive entries are left out as doubtful fits.

assay: Primary qHTS for delayed death inhibitors of the malarial parasite plastid, 48 hour incubation; conditions: P. falciparum luciferase growth in erythrocytes; series mostly up to 28.7 µM; activity change, negative = inhibition: at the top concentration
How it was run: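 Parasite viability was followed by luminescence of a genomically integrated firefly luciferase. Cultures held 0.1% parasitemia at 2% hematocrit (final), incubated under 5% CO2 at 37 C.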
% is set by controls: 0 for no effect and ±100 for the full control effect; potency is the fitted concentration of half-maximal effect; tags give direction and shape of the fitted curve.

Row | SMILES | Potency | activity change, negative = inhibition
1 | Cc1ccc(C(=O)OC(C)C(=O)NC2CCCCC2C)cc1S(=O)(=O)N1CCOCC1 (centres undefined) | inconclusive [inhibitor, single point] | 
2 | CC(=O)Nc1nc2ccccc2n1Cc1ccc(Cl)cc1 | active: 2.94 µM | 
3 | COc1ccc(NC(=O)c2cccc(NC(=O)C3C4CC5OC(=O)C3C5C4)c2)c(OC)c1 (centres undefined) | inconclusive [inhibitor, single point] | 
4 | Nc1nonc1-n1nnc(C(=O)N/N=C/c2ccc(Cl)cc2)c1-c1ccc2c(c1)OCO2 | active: 0.329 µM | 
5 | CCn1c(SCC(=O)Nc2cccc(S(=O)(=O)N(C)c3ccccc3)c2)nnc1C1CC1 | inconclusive [inhibitor, single point] | 
6 | Cc1cc(C)cc(-n2c(SCC(=O)NCc3ccc4c(c3)OCO4)nc3ccccc3c2=O)c1 | inconclusive [inhibitor, single point] | 
7 | CC(C)(C)OC(=O)CNC(=O)c1nc[nH]c1C(=O)N1CCc2ccccc2C1 |  | inactive: 24.6%
8 | Cc1cc(C(=O)NCc2csc(-c3ccccc3)n2)no1 |  | inactive: 59.2%
9 | COc1ccc(CNCCC(c2ccc(OC(C)C)cc2)c2ccccc2OC)cc1OC (centres undefined) | active: 13.1 µM | 
10 | COc1ccc(-n2ncc3c2CC(C)(C)CC3NC(=O)c2ocnc2C)cc1 (centres undefined) | inconclusive [inhibitor, single point] | 
11 | COc1ccc(C(c2nnnn2Cc2ccccc2)N2CCN(c3nc4ccccc4s3)CC2)cc1 (centres undefined) | active: 5.22 µM | 
12 | O=C(NC1CCCC1)C(c1ccncc1)N(Cc1ccco1)C(=O)c1ccc(-c2ccccc2)[nH]1 (centres undefined) | inconclusive [inhibitor, partial curve] | 
13 | COCCCNC(=O)CN(c1ccc(OC)cc1)S(=O)(=O)c1ccc(NC(C)=O)cc1 | inconclusive [inhibitor, partial curve] | 
14 | Cc1c(C2Nc3ccccc3C(=O)N2O)cnn1C (centres undefined) |  | inactive: 30.4%
15 | CCCC(=O)Nc1ccc(N2CCOCC2)cc1 |  | inactive: 21.8%
16 | Cc1cccc[n+]1CC(=O)N1c2ccccc2Sc2ccccc21 | active: 3.7 µM | 
17 | CCOC(=O)Nc1ccc2c(c1)N(C(=O)CN1CCN(C)CC1)c1ccccc1S2 | active: 9.28 µM | 
18 | CN[C@@H]1C[C@@H](c2ccc(Cl)c(Cl)c2)c2ccccc21 | active: 15.1 µM | 
19 | Cc1ccc(C(=O)NCC(=O)N(C)CC(=O)Nc2c(Cl)cccc2Cl)s1 |  | inactive: -11.6%
20 | Cc1ccc(C)c(NC(=O)CN(C)C(C)C(=O)N2CC(C)CC(C)C2)c1 (centres undefined) | inconclusive [inhibitor, single point] | 
21 | O=C(/C=C/c1ccccc1)N1CCN(c2ccccn2)CC1 |  | inactive: 17.1%
22 | CCC(C)NC(=O)c1c(N)n(Cc2ccc3c(c2)OCO3)c2nc3ccccc3nc12 (centres undefined) | inconclusive [inhibitor, single point] | 
23 | Cc1ccc2cccc(Oc3ncnc4scc(-c5ccc(Cl)cc5)c34)c2n1 | inconclusive [inhibitor, single point] | 
24 | CCOc1ccc(OCC)c(NC(=O)Nc2ccc3c(c2)N(C)C(=O)CS3)c1 | inconclusive [inhibitor, partial curve] | 
25 | Cc1cc(=O)n2c(n1)SCOC2 | inconclusive [inhibitor, partial curve, poor fit] | 

Row | SMILES | Potency | activity change, negative = inhibition
26 | CCOC(=O)N1CCN(CCC(=O)Nc2ccc(F)c(F)c2)CC1 | inconclusive [inhibitor, partial curve, poor fit] | 
27 | COc1ccc(C(=O)NC2CC2)cc1OC1CCN(Cc2ccccc2O)CC1 | inconclusive [inhibitor, single point] | 
28 | CN(CCO)c1cc(N2CCN(C(=O)c3ccco3)CC2)c2nonc2c1[N+](=O)[O-] |  | inactive: 2.84%
29 | CC1CCCN(CCC(=O)Nc2ccc3c(c2)CCC3)C1 (centres undefined) |  | inactive: 14.8%
30 | Cn1c(CSc2nc3ccc(Br)cc3[nH]2)nc2ccccc21 | inconclusive [inhibitor, single point] | 
31 | NC(=O)C1CCCN(C(=O)c2ccc3oc(Cc4ccc(Cl)cc4)nc3c2)C1 (centres undefined) |  | inactive: 2.39%
32 | C=CCNC(=S)NN=C1CCCCCCC1 | active: 8.28 µM | 
33 | CCCc1ccc(/C=C2\C(=O)c3ccccc3C(O)=C2C(=O)OCC)cc1 | active: 4.65 µM | 
34 | CC1C(=O)N2CCCc3cc(NC(=O)COc4ccc(Cl)cc4)cc1c32 (centres undefined) | inconclusive [inhibitor, single point] | 
35 | Cc1cc(NC(=O)c2cc(-c3cccs3)nc3ccccc23)no1 | inconclusive [inhibitor, partial curve] | 
36 | CC(C)CN(C(=O)COC(=O)C12CC3CC(CC(Cl)(C3)C1)C2)c1c(N)n(Cc2ccccc2)c(=O)[nH]c1=O | active: 4.65 µM | 
37 | Cc1ccccc1NC(=O)Cc1nc(CCl)cs1 | inconclusive [inhibitor, single point] | 
38 | COC(=O)c1ccc(N(C(=O)c2ccco2)C(C(=O)NC2CCCC2)c2ccco2)cc1 (centres undefined) | inconclusive [inhibitor, partial curve, poor fit] | 
39 | Cc1ccc(S(=O)(=O)N2CCN(C(=O)c3cc(C4CC4)nc4c3cnn4C(C)C)CC2)cc1 | active: 13.1 µM | 
40 | CCOc1ccc(NC(=S)NC(=O)/C=C/c2ccc(C)cc2)c([N+](=O)[O-])c1 |  | inactive: 6.9%
41 | COCCNC(=O)c1ccc(NS(=O)(=O)c2ccc3[nH]c(=O)[nH]c3c2)cc1 |  | inactive: 20.5%
42 | N#C/C(=C\C1CC2C=CC1C2)c1nc2ccccc2[nH]1 (centres undefined) | inconclusive [inhibitor, partial curve, poor fit] | 
43 | O=C(NCC1CCN(Cc2cccc(Cl)c2)CC1)Nc1ccccc1Cl | inconclusive [inhibitor, single point] | 
44 | Cc1ccccc1NC(=S)N=Nc1c(O)n(C)c2ccc(S(=O)(=O)N3CCOCC3)cc12 | active: 3.29 µM | 
45 | COC(=O)C1=CN(Cc2ccc(C)cc2)C=C(C(=O)OC)C1c1cc(OC)c(OC)c(OC)c1 | active: 1.47 µM | 
46 | CC1CCC(=C(C#N)c2nc(-c3cc4ccccc4oc3=O)cs2)CC1 (centres undefined) | inconclusive [inhibitor, single point] | 
47 | CCCCC(CC)COCCCN=Cc1c(O)[nH]c(=S)[nH]c1=O (centres undefined) | inconclusive [inhibitor, single point] | 
48 | COc1cc(/C=C/C(=O)O)ccc1OS(=O)(=O)c1cc(Br)ccc1C | inconclusive [inhibitor, partial curve] | 
49 | CCc1c(C)nc(N2CCN(c3ccccc3F)CC2)[nH]c1=O |  | inactive: 5.75%
50 | COc1ccc2[nH]c(C(=O)NCc3ccccc3)c(C)c2c1 |  | inactive: 27.5%

Row | SMILES | Potency | activity change, negative = inhibition
51 | Oc1ccc(Nc2nnc(-c3ccc(O)cc3)c3ccccc23)cc1 | inconclusive [inhibitor, single point] | 
52 | CC(=O)c1cccc(NC(=O)CCC2CCCC2)c1 |  | inactive: 56.3%
53 | NNC(=S)NCc1ccccc1 | inconclusive [inhibitor, single point] | 
54 | CC1CCC(C(C)C)C(OP(=O)(c2ccccc2)C(O)c2ccncc2)C1 (centres undefined) |  | inactive: -25.1%
55 | CCOc1ccccc1NC(=O)Nc1ccncc1 | active: 3.29 µM | 
56 | COc1ccc(CC(=O)N/N=C/c2ccc(-c3cccc(C(=O)O)c3)o2)cc1OC |  | inactive: 47.9%
57 | NNC(=O)c1sccc1OCc1cccc(C(F)(F)F)c1 | inconclusive [inhibitor, partial curve] | 
58 | CCN(CC)c1ccc(/C=N/NC(=O)Nc2nonc2N)cc1 |  | inactive: 23.3%
59 | CCCc1c(C(=O)Nc2cc(C(C)(C)C)on2)cnn1-c1ccccc1 | inconclusive [inhibitor, partial curve, poor fit] | 
60 | Cc1ccc(S(=O)(=O)CCC(=O)OC(C)C(=O)N2CCc3ccccc32)cc1 (centres undefined) | inconclusive [inhibitor, single point] | 
61 | CC(=O)c1c(C)[nH]c(C(=O)COc2ccc3ccc(=O)oc3c2)c1C | active: 10.4 µM | 
62 | C=CCOC(=O)C1=C(C)NC(C)=C(C(=O)OCC=C)C1c1cn(-c2ccccc2)nc1-c1ccco1 | inconclusive [inhibitor, partial curve] | 
63 | OCCN1CCN(CCCN2c3ccccc3C=Cc3ccccc32)CC1 | active: 6.75 µM | 
64 | COC(=O)Nc1ccc(S(=O)(=O)N2CCCCCC2)cc1 | inconclusive [inhibitor, single point] | 
65 | CCCn1nc(NC(=O)c2cccs2)c2cc3cc(C)ccc3nc21 | inconclusive [inhibitor, single point] | 
66 | CC(Oc1ccc(Br)cc1)C(=O)Nc1cc(Cl)ccc1N1CCN(C)CC1 (centres undefined) | active: 11.7 µM | 
67 | O=C(COc1ccc(S(=O)(=O)N2CCCCC2)cc1)NC1CCCCC1 | active: 8.28 µM | 
68 | CN(C)S(=O)(=O)c1cccc(NC(=O)C2Cc3ccccc3CN2C(=O)c2ccccc2)c1 (centres undefined) | inconclusive [inhibitor, partial curve] | 
69 | COc1ccc(C2C(C#N)=C(N)Oc3cc(O)ccc32)cc1Cl (centres undefined) |  | inactive: -27.1%
70 | Cc1ccc(-c2cc(C(F)F)n3ncc(C(=O)N4CCN(c5ccccn5)CC4)c3n2)cc1 | inconclusive [inhibitor, single point] | 
71 | Cc1nn(C)cc1C(=O)NNC(=S)Nc1ccc(Cl)cc1 | inconclusive [inhibitor, single point] | 
72 | CC(=O)c1cccc(N2C(=O)CC(N3CCN(S(=O)(=O)c4ccc(Cl)cc4)CC3)C2=O)c1 (centres undefined) |  | inactive: 0.725%
73 | Cc1ccc(-n2nc(C(=O)c3ccccc3)n3c(=O)cc(-c4ccccc4)nc23)cc1 |  | inactive: 15.2%
74 | COc1ccccc1C(=O)NC(=O)Cn1nc(C)c([N+](=O)[O-])c1C | inconclusive [inhibitor, partial curve, poor fit] | 
